Assay results published in the RNAGym collection of RNA variant scans (doi:10.1093/nar/gkz1192).
The source gives no read counts; variants with many changes may rest on few reads.

B1: CPEB3 Ribozyme (parent)
chain: UAACAGGGGGCCACAGCAGAAGCGUUCACGUCGCAGCCCCUGUCAGAUUCUGGUGAAUCUGCGAAUUCUGCUGUAUAUCUC

Variants of: B1
Experiment: self-cleavage, relative activity (ratio to wild type); higher = more cleavage; in vitro, sequencing
Procedure, shortened: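 CPEB3 self-cleaving ribozyme mutant libraries were made by rounds of error-prone PCR, barcoded, and transcribed in vitro with T7 RNA polymerase for 5 hours at 37°C. Cleavage occurred during transcription and a 15 min DNase I step before EDTA stop. RNAs were reverse transcribed with template switching and Illumina-sequenced, with DNA sequencing mapping barcodes to variants. Relative activity is the variant's cleaved/total read fraction divided by wild type's (minimum 5 reads), averaged across three batches.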

| Variant | self-cleavage |
| --- | --- |
| U41C U60A G61U U66G U78A | 0 |
| U41C U60C A64C | 0.19 |
| U41C U60C U67C | 0.25 |
| U41C U60C U72G | 0.46 |
| U41C U66C G73A | 0.8 |
| U41C U66C U67A | 0.36 |
| U41C U66C U69A | 0.64 |
| U41C U66C U69G | 0.46 |
| U41C U66C U78A | 0.36 |
| U41C U67A G73A | 1.13 |
| U41C U67A U76C | 0.51 |
| U41C U67C C81U | 0.26 |
| U41C U67G U74C | 0.46 |
| U41C U69A U72A | 0.39 |
| U41C U69C A75G | 0.31 |
| U41C U69C U74A C79U | 0.86 |
| U41C U69C U80C | 0.53 |
| U41C U69G U76C | 0.89 |
| U41C U69G U80C | 0.73 |
| U41C U72A G73U A77C | 1.31 |
| U41C U72C U76C | 1.11 |

| Variant | self-cleavage |
| --- | --- |
| U41C U72C U80C | 1.31 |
| U41C U74A U80C | 1.25 |
| U41C U76C U78A | 1.28 |
| U41C U78C U80C | 1.05 |
| U41G A45C C62A A64G U72C A75G U78C | 0.05 |
| U41G A45G U49A U67A | 0.14 |
| U41G A45G U54C | 0.44 |
| U41G A47U U72A | 0.21 |
| U41G A64G U80C | 0.59 |
| U41G A64U U78C | 0.24 |
| U41G A77U U78C | 0.17 |
| U41G G52A U67C | 0.21 |
| U41G U43A U48C G61U | 0.19 |
| U41G U43A U51C A56G A64G | 0.07 |
| U41G U43C A45U C62U | 0.47 |
| U41G U43C U48C G53A U60A U69C | 0.19 |
| U41G U48A A64G U76A U80C | 0.09 |
| U41G U48C A64G | 0.18 |
| U41G U48C A75U | 0.28 |
| U41G U49C G61A | 0.08 |
| U41G U49C U51A A57G | 0.15 |

| Variant | self-cleavage |
| --- | --- |
| U41G U49C U54C A57G | 0.35 |
| U41G U49C U58A | 0.2 |
| U41G U49C U67C | 0.15 |
| U41G U54C U66C U69G U78C | 0.1 |
| U41G U66C U72C | 0.2 |
| G42A A45C U72A U74C U76A | 0.33 |
| G42A A45G U58C | 0.41 |
| G42A A45U A56U | 0.12 |
| G42A A45U A64U | 0.23 |
| G42A A47G A57U U72A | 0.08 |
| G42A A65U U66G | 0.18 |
| G42A C68U U72C | 0.15 |
| G42A G46A A47U A65G U69A U78A | 0.1 |
| G42A G52U A57G A64U C68A | 0.16 |
| G42A U43A A45G U51C A75U U78C | 0.07 |
| G42A U43C U51C U67C | 0.29 |
| G42A U49C U54C | 0.48 |
| G42A U49C U69A U78C | 0.16 |
| G42A U49C U78C | 0.49 |
| G42A U51C U58G | 0.16 |
| G42A U54C U60C | 0.15 |

| Variant | self-cleavage |
| --- | --- |
| G42A U58C U67A | 0.07 |
| G42A U60A U69A | 0.13 |
| G42A U66C U69C U78C | 0.06 |
| G42C C71G A75U | 0.12 |
| G42C U43C U49C A56U | 0.06 |
| G42C U48C A64G U66C U80A | 0.16 |
| G42C U49A U51A U66C | 0.05 |
| G42C U49A U66C A77C | 0.23 |
| G42C U60G A64G U66C U69G A75G | 0 |
| G42C U72C U78G | 0.25 |
| G42U A64G U80C | 0.76 |
| G42U A75G U76G | 0.21 |
| G42U U43A A56U | 0.09 |
| G42U U43C U51C G53A U60A U74C U80C | 0.19 |
| G42U U49C U60C | 0.14 |
| G42U U51A U60A | 0.7 |
| U43A A45G U54A | 1.1 |
| U43A A45G U54C A56G | 0.78 |
| U43A A45G U67C C68A | 0.27 |
| U43A A45U A47G A57G | 0.15 |
| U43A A45U U80G | 1.13 |
